# According to the supplement of paper PMC10126150:
# Values marked as one replicate rest on one cluster of the flow cell; about a third of the high ones do not repeat.
# Tested on: ATP
# Experiment: switch fluorescence ratio, 500 uM ATP over buffer (Cy3 cluster intensity, sum of 5 cycles each) (fold (ratio)); higher = stronger signal-on switching upon ATP binding; sequences stand for … in TCGTCGGCAGCGTCAGATGTGTATAAGAGACAGTTTTTTTTTTTTTTTTTTTTTTTTT…TC
# Details: aptamer strand: ATP DNA aptamer (quencher-CACCTGGGGGAGTATTGCGGAGGAAGG + anchor), 100 nM annealed; ATP concentration: 500 uM; one replicate
# Summary of the method: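 Between each of five buffer/ATP cycles, the flow-cell was stripped with NaOH and re-annealed. Each cycle imaged Cy3-labelled switching-strand clusters, annealed to 100 nM quencher-labelled ATP aptamer on a modified Illumina MiSeq flow-cell, first in selection buffer and then after 15 min with 500 uM ATP at 22 °C. The fluorescence ratio is summed target-cycle over summed buffer-cycle Cy3 intensity per cluster, averaged per switch-domain sequence, with clusters outside 100-1000 RFU excluded.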
# 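Note: ATP exposure 15 min at 22 °C before imaging.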
row,Sequence,switch fluorescence ratio
1,TACGTTATGA,1.16
2,CCATGTATGC,0.958
3,ACGTTCACAT,1.31
4,ACGCTTGGAC,1.65
5,GACCTTGGCA,1.04
6,TGTAATATGT,0.961
7,TTAATTTTAC,1.02
8,CCAGAATGTA,0.969
9,CGATCTTCCG,1.14
10,GATTAGCTTT,1.05
11,GGGTTTTTAA,0.983
12,TTGGTGAGTC,1.01
13,GGGCTATCGT,1.08
14,TTTTATTTAA,0.988
15,GATATTAAC,0.999
16,TGCAGAATTT,0.923
17,AATTACTTC,0.995
18,TGTAATCAGT,0.998
19,GTGGGCCATT,0.921
20,TCTTGTTTCG,0.983
21,AGACTCAGTT,1.04
22,AGGCATTGTG,0.964
23,ATCTGGTGAT,1
24,GCGTTACAGC,0.963
25,AGGCAGGGTG,1.05
26,CGGTGAAGGA,0.974

row,Sequence,switch fluorescence ratio
1,CTCAGCAAAC,1.98
2,GCAATTAGGC,1.14
3,CCGGGCCGTG,1.02
4,CCGGGTGTTC,1.64
5,CCTTAATTTC,1.04
6,ATTGTTAGCG,0.932
7,TATAGGTCAT,0.962
8,AAAGCGTCCA,0.975
9,CCTATAACTA,1.01
10,CGGCATGG,1
11,TTTCAAGCGC,1.01
12,ATTACACGGA,1.04
13,AGATTTGATA,0.987
14,TTACATGCTT,0.974
15,AGGTCCAAAT,0.953
16,CACCCAAGCA,1.13
17,CATGTTCCCG,1
18,AATGGTTGT,0.998
19,GTGGCACCTT,1.03
20,TTGGATGTTA,1.03
21,CGAACAATTT,1.03
22,TTGGTAGATA,0.983
23,CGCGGGTACA,1.04
24,GCTAGTAGTA,0.985
25,TTATGGAGGG,0.989
26,CAGTCAAGTA,1.05

row,Sequence,switch fluorescence ratio
1,TAAACGCTCC,1.45
2,CAGCGGGAG,0.993
3,GCGTGCGACC,1.16
4,CGCGGCGAAT,1.14
5,AGTGACTGT,0.98
6,GGCGCCCCTA,1.01
7,AGCTATATGT,1.07
8,CTCCAAGGCC,1.08
9,TCCTTTTGAG,1.02
10,ATCCTTCCAG,1.35
11,CGATGCGGCC,1.2
12,CTCTGTCTTA,1.01
13,TAAGTCGTCT,1.01
14,ATGACGGGG,0.998
15,TGCAGATTCA,1.01
16,ATATCGACAA,1.02
17,CGTGTTGAGC,1.01
18,AACTTGACGC,1.14
19,TAGACTCCCG,1.31
20,ACCACGGCTT,1.02
21,CCTTACTTAT,1.08
22,GAATGAGCGG,1.02
23,GTGGAGATGG,1
24,ACCCTCGTTG,1
25,GCCGATAATA,1.04
26,GATGAACTAG,0.994

row,Sequence,switch fluorescence ratio
1,ACCACGCG,1.03
2,AGAATTTT,1.01
3,CCGAGTGGAT,1.26
4,AGAAGGCACT,0.972
5,GCGATGGCGG,1.01
6,ACTCGACGTG,0.931
7,ATCTTCGATA,1.02
8,GGCGGGACTT,0.998
9,CAGGGGCCCA,0.997
10,TCTGACCGTG,1.01
11,TGCTTCGTCC,1.3
12,GTCATTGGG,0.959
13,CTCAGCTAAG,1.33
14,CATAGAAAGT,1
15,CAAAGGGTAC,1.07
16,ACTGCAAATA,1.23
17,TTATGTGCTA,0.923
18,ATAGAGCTT,1.01
19,ACATCGCTT,1.06
20,TAAAAGAATC,1.01
21,TAACTCGGTT,0.99
22,ACGCCCTTTG,1.63
23,TCTAGTTG,0.995
24,TCGGGGAGCT,0.955
25,AGGTGAGATG,1.01
26,CTCAAAGTCG,1.05

row,Sequence,switch fluorescence ratio
1,ATGAGGTCAA,1.05
2,GATTTCACCG,1.01
3,AATCGGGATT,0.948
4,CTTCAATCGA,0.998
5,CGCATCCATA,1.11
6,GCAAATTCTG,0.986
7,CAAGCAGACG,1.08
8,CATGCGCATT,1.67
9,ACGCCGCTAA,2.78
10,CAGCCCATCG,0.94
11,AAATGCATG,0.991
12,TTAGCGCCCG,0.994
13,AACACGTTCC,2.31
14,GAACCTGGGC,1.03
15,GATGCTGAA,1
16,GCCTCGGACA,1.04
17,GCGGTTTGTG,0.96
18,CGGTCAGCGC,0.98
19,GAGACTGTTA,1.03
20,TAGCTCGCTT,1
21,GGCCTGTGGG,1.01
22,GTGTCTGGTT,0.977
23,AGTCTGTGTC,0.978
24,CTCTGTCAAA,1.88
25,AGCGATGGGC,1.05
26,ATTTTTAGTA,0.957

row,Sequence,switch fluorescence ratio
1,TTACACGGTA,1.12
2,AGGGAAGCCC,1.05
3,GCATAAATGG,1.01
4,GAAATGAATT,0.969
5,CATTCACTGG,1.01
6,CACCGTC,1.14
7,CGGCCAAGAT,1.07
8,GGTAACCAAA,1.02
9,GCGGAACATA,0.975
10,TTCCAATGGA,0.987
11,TTAAATGTAA,0.986
12,GGATTTCACG,0.987
13,CAGGAAAAGG,1.08
14,TTCCAATAAC,1.26
15,TTTTCTGGTC,1.07
16,CTATAAAGAG,0.993
17,CACTTTAGAG,0.955
18,AATGTGATTC,0.975
19,ACATGGCACT,1.12
20,ATTATACGAT,0.981
21,ATGCTATAGG,1.01
22,TGCTGAGCTG,0.89
23,AGTAATTTCG,0.961
24,GCTCAAAGGA,0.992
25,TGCCGGTGTG,0.981
26,GACCTAAAGT,1.32

row,Sequence,switch fluorescence ratio
1,TTCCTAGTGG,0.989
2,CGTTGTCGAC,0.997
3,CGTGACGGGC,0.857
4,TAAAAACGAT,1.02
5,TACGAAAGGG,1.11
6,AAGGGGTGT,0.96
7,ATATATCCAG,1
8,GGGCCGGGGA,1.02
9,GGCCGTT,0.974
10,AATATGTGAC,1.05
11,ATATCATGTA,0.941
12,GGGGCATTG,0.968
13,GTTCTGGCGC,1.02
14,TAGCCGACGC,1.94
15,GGCTGCTTGT,1.03
16,TCCATACAA,1.02
17,TTTTAGCTTA,1.03
18,GGGATAGCAG,0.986
19,TCTTGCTAAT,0.989
20,GTAGCGATG,1.38
21,TATCGCGCGA,0.979
22,TCGAAGACTA,0.99
23,CGTTTCACCG,1
24,GATTCAGGA,1.02
25,TTAAAAGAG,1.03
26,ATGGGCATAT,0.949

row,Sequence,switch fluorescence ratio
1,TATGAGCCAC,1.06
2,GCATGAGGAG,1.05
3,AAGTTTCCTG,0.954
4,ATCCGTCAGC,1.21
5,GAGCGTGCAG,0.975
6,TATTTACGTC,0.99
7,CGCGATGGC,2.54
8,GAATTCTTGG,1.02
9,TGTTGGAATG,1.04
10,ACTTGGTCCG,1.07
11,GCGGCTAAAT,1.03
12,GTTGATCATT,1
13,CTACTACGGA,1.02
14,AGAGTGCCGG,1.05
15,ATAGTAATGA,0.977
16,CGTGGAAGGC,1.05
17,CACGCATCCG,1.04
18,GTCGTAACGG,1.05
19,GTTGGCATG,1.01
